# Laboratory results as given in PubChem BioAssay AID1963319 (National Center for Advancing Translational Sciences (NCATS), 2024).
# Screen size: about 1,300 compounds; about 120 (9.2%) were called active. This list was built around the results that the source calls inconclusive (neither active nor inactive); the mix of calls is not that of the screen. Calls follow the shape of the dose curve; as a rule, active = well fitted activation curve with a large enough effect; inconclusive = small, poorly fitted or top-dose-only effect; inactive = flat fitted curve, though single readings scatter. A potency beside an inconclusive call is a rough fit, not a confirmed value.
# Target: Luciferin 4-monooxygenase (Photinus pyralis) (UniProt P08659)
# Assay: Firefly luciferase (FLuc-C-HiBiT) SDR gain of signal screen - plus ATP;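 also: signal reports ligand binding via conformational change of the enzyme rather than luciferase catalysis; nearly all actives have a fitted effect of over 55% in size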; as to activation (gain of signal): % of control where 0% means no effect
# Conditions: purified FLuc-C-HiBiT + ATP, HiBiT complementation luminescence; series mostly up to 32.7 µM; activation (gain of signal): at the top concentration
# Procedure, shortened: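 Luminescence read-out of HiBiT complementation (structural dynamics response): enzyme at 10 nM final, 10 uM ATP, compound preincubation >30 min at RT, then Nano-Glo HiBiT detection for 5-10 min before CCD imaging with 1 sec exposure.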
# Potency is read from the fitted curve at half-maximal effect; tags tell the direction and shape of the fitted curve.
# Chain of UniProt P08659 (P08659 whole entry, looked up): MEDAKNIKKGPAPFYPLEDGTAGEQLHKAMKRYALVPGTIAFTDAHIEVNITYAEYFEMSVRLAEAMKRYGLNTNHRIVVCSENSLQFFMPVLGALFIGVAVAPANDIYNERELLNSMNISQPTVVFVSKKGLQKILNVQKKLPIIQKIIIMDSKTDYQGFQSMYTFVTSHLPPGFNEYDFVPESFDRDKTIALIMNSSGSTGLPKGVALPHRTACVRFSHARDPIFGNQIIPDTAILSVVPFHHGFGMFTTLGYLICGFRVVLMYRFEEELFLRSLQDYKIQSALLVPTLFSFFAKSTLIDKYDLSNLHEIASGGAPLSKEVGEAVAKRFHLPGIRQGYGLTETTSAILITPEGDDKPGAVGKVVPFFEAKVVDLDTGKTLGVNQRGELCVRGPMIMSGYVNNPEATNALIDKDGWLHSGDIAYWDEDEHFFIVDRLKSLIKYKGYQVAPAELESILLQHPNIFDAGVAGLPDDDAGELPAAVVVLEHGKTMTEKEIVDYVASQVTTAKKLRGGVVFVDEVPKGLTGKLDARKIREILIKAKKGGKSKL
Structure (SMILES),Potency,activation (gain of signal)
CN(C)c1cccc(-c2ncc3c(n2)OCCN(c2ccccc2)C3=O)c1,"inconclusive: 20.2 µM [activator, partial curve, poor fit]",–
Cc1ccc(-n2nc(C)c([C@H]3C=C[C@@H](O)C3)c2C)cc1Cl,"inconclusive: 12.8 µM [activator, partial curve, poor fit]",–
COc1ccccc1CNC(=O)C1CCN(C(=O)c2ncn3c2COC(c2ccccc2)C3)CC1 (centres undefined),"inconclusive: 11.1 µM [activator, partial curve]",–
CC1CCCCN1c1ncnc2c1cnn2-c1ccccc1 (centres undefined),"inconclusive: 8.81 µM [activator, partial curve]",–
CSc1ccc(/C=C/c2nc3ccccc3n2S(=O)(=O)c2ccc(Br)cc2)cc1,"inconclusive: 4.42 µM [activator, partial curve]",–
COCC(=O)Nc1nc2c(s1)C[C@]1(C)CC[C@@H]3[C@H](OC(=O)[C@H]3C)[C@H]1[C@@H]2C,active: 4.53 µM,–
Cc1nn(-c2ccc(C(C)(C)C)cc2)c(C)c1[C@@H]1C=C[C@@H](NC(=O)c2ccco2)C1,–,inactive: 9.65% [at 49.3 µM]
CS(=O)(=O)Nc1ccc(-c2nc3ccccc3s2)cc1,"inconclusive: 2.21 µM [activator, full curve]",–
Cc1ccc(/C=C/C(=O)N2CCC(c3nc4ccccc4o3)CC2)cc1,"inconclusive: 12.4 µM [activator, partial curve]",–
c1ccc(CCCNc2nccc(-c3ccccn3)n2)nc1,–,inactive: 15.3%
COc1ccc(-c2nnc(SC(C)C(=O)O)o2)cc1 (centres undefined),"inconclusive: 11.1 µM [activator, partial curve, poor fit]",–
COCCN1CCC2(C1)CN(C)c1ccc(C(=O)Nc3ccccc3)cc12 (centres undefined),"inconclusive: 3.6 µM [activator, full curve]",–
Cc1ccc(-n2ncc3c(N4CCN(C)CC4)ncnc32)cc1,"inconclusive: 4.95 µM [activator, partial curve, poor fit]",–
O=C1c2cnc(-c3cccc(F)c3)nc2OCCN1c1ccccc1,"inconclusive: 12.8 µM [activator, partial curve, poor fit]",–
COc1ccc(C(=O)NCCC2CCN(C(=O)Nc3cc(F)cc(F)c3)CC2)cc1,–,inactive: 14.8%
CNc1ccc(-c2nc3ccccc3s2)cc1,active: 1.11 µM,–
CCC(=O)Nc1ccc2nnc(-c3ccc(C(=O)Nc4ccc5c(c4)OCCO5)cc3)n2c1,"inconclusive: 5.56 µM [activator, partial curve, poor fit]",–
CCOc1ccc(-c2cc(CCCC(=O)NCCc3ccc(OCC)c(OCC)c3)no2)cc1,"inconclusive: 14 µM [activator, partial curve]",–
COc1ccc(-c2nc3cc(F)ccc3s2)cc1OC,–,inactive: 13.6% [at 3.62 µM]
Cc1c(NC(=O)Cc2ccccc2)cccc1-c1nc2ccccc2s1,–,inactive: 17%
COc1cccc(-c2noc(Nc3ccc(OC)c(OC)c3)n2)c1,–,inactive: 18.6%
Cc1ccc(Cc2cn3cc(-c4ccccc4)nc3s2)cc1,"inconclusive: 1.4 µM [activator, full curve]",–
O=C(Nc1ccccc1)c1nc2c(o1)CCN(Cc1cccnc1)CC2,"inconclusive: 16.1 µM [activator, partial curve]",–

Structure (SMILES),Potency,activation (gain of signal)
O=C(Nc1ccccc1F)c1ccc(-c2ccccc2)s1,"inconclusive: 1.4 µM [activator, full curve, poor fit]",–
C[S+](=O)([O-])CCn1ncc2cc(OCc3cccc(-c4ccccc4)c3)ccc21,–,inactive: 11.7% [at 49.3 µM]
CCOc1ccc(-c2cc3c(=O)n(CCNC(=O)c4cccc5[nH]ccc45)ccn3n2)cc1,"inconclusive: 11.1 µM [activator, partial curve, poor fit]",–
NC(=O)C1CCCN(c2ncnc3c2cnn3-c2ccccc2)C1 (centres undefined),"inconclusive: 7.85 µM [activator, partial curve]",–
CCCc1ccc(OCc2ccc(C(=O)Nc3ccccc3C(=O)OC)o2)cc1,"inconclusive: 11.1 µM [activator, partial curve, poor fit]",–
O=C(NCc1cccc(Cl)c1)C1CCCN(c2nn3cc(-c4ccc(F)cc4)nc3s2)C1 (centres undefined),"inconclusive: 11.1 µM [activator, partial curve, poor fit]",–
C[C@@H]1C(=O)O[C@H]2[C@H]1CC[C@@]1(C)Cc3sc(NC(=O)COCC(=O)O)nc3[C@@H](C)[C@H]21,"inconclusive: 4.04 µM [activator, full curve]",–
COc1c(C)cccc1C(=O)Nc1ccc(-c2nc3ccccc3s2)c(Cl)c1,–,inactive: 6.49%
Cc1ccc2sc(-c3ccc(N)cc3)nc2c1,"inconclusive: 3.51 µM [activator, full curve]",–
Cc1ccc(-c2cc3c(=O)n(CCNC(=O)c4cccnc4)ccn3n2)c(C)c1,"inconclusive: 14 µM [activator, partial curve, poor fit]",–
COc1ccc2cc(C3CN(C(=O)c4cccc(CO)n4)CCO3)ccc2c1 (centres undefined),"inconclusive: 9.89 µM [activator, partial curve, poor fit]",–
Cc1ccccc1CCNC(=O)c1ccc2c(c1)nc1n2CCCCC1,"inconclusive: 2.48 µM [activator, full curve]",–
CCN(CC)CCOc1ccc(-c2nc3cc(Cl)ccc3s2)cc1,–,inactive: 13.2% [at 65.7 µM]
CCCc1nn2cc(-c3ccc(C)c(C)c3)nc2s1,"inconclusive: 1.76 µM [activator, full curve]",–
Cc1cnc(NC(=O)c2ccc3c(c2)OCC(=O)N(C)C3)s1,"inconclusive: 20.2 µM [activator, partial curve]",–
COc1ccc(-c2cc(N3CCCC(NC(=O)c4cccc5[nH]ccc45)C3)n[nH]2)cc1 (centres undefined),–,inactive: 7.46%
CCOC(=O)N1CCc2c(sc(NCc3cccs3)c2C(=O)Nc2ccc(OC)cc2OC)C1,"inconclusive: 11.1 µM [activator, partial curve]",–
Cn1cc(CN2CCc3nc(C(=O)Nc4ccccc4)oc3CC2)cn1,–,inactive: 17% [at 49.3 µM]
CCNC(=O)N[C@@H]1C=C[C@@H](c2c(C)nn(-c3ccc(F)cc3)c2C)C1,"inconclusive: 18 µM [activator, partial curve, poor fit]",–
O=C(Nc1cccc(F)c1)Nc1cccc(-c2ccc(N3CCCCC3)nn2)c1,"inconclusive: 8.81 µM [activator, partial curve]",–
CC(=O)c1ccc(NC(=O)CSc2nnc(NC(=O)Nc3ccccc3)s2)cc1,–,inactive: 12%
Cc1ccc(Nc2ncnc3c2nc2n3CCCC2)c(Br)c1,"inconclusive: 11.1 µM [activator, partial curve]",–
Cc1ccc2oc(C(=O)Nc3cccc(-c4nc5ccccc5s4)c3)c(C)c2c1,"inconclusive: 11.1 µM [activator, partial curve, poor fit]",–

Structure (SMILES),Potency,activation (gain of signal)
Fc1ccc(Nc2nc(-c3ccccc3F)no2)cc1,–,inactive: 17.1%
Cc1ccc(-n2ncc3c(N4CCCCC4)nc(NCCCO)nc32)cc1,–,inactive: 7.46%
O=C(Nc1ccc2c(c1)OCCO2)N1CCC2(CC1)CC(N1CCCC1)CCO2 (centres undefined),"inconclusive: 12.4 µM [activator, partial curve, poor fit]",–
Cn1ccnc1CN1CCNc2cc(Nc3ccccc3)ncc2C1,–,inactive: 17.4% [at 49.3 µM]
COc1ccc(C(=O)Nc2cc(C)c(O)c(-c3nc4ccccc4s3)c2)cc1OC,–,inactive: 12.5%
CCCNC(=O)c1cccc2c1CCN2C(=O)Nc1cccc(C)c1,active: 3.51 µM,–
CCC(CC)c1nn2cc(-c3ccccc3)nc2s1,"inconclusive: 3.94 µM [activator, partial curve]",–
CCC(=O)Nc1cc(-c2nc3ccccc3s2)c(Cl)cc1Cl,–,inactive: 10.9%
Fc1ccc(Cc2cn3cc(-c4ccccc4)nc3s2)cc1,"inconclusive: 3.51 µM [activator, partial curve]",–
Cc1ccc(CN2C(=O)OC(c3cccc(NC(=O)c4ccc(C)cc4)c3)C2C(=O)NCC(C)C)cc1 (centres undefined),active: 11.1 µM,–
COc1ccc(-c2noc([C@@H]3C[C@H](NCc4ccccn4)CN3C)n2)cc1,–,inactive: 14.6% [at 49.3 µM]
COc1cccc(Nc2cc3c(cn2)CN(C(C)=O)CCN3)c1,"inconclusive: 14.3 µM [activator, partial curve, poor fit]",–
COc1ccc(CN(C(=O)c2cc3ccccc3oc2=O)C2CCS(=O)(=O)C2)cc1OC (centres undefined),"inconclusive: 17.6 µM [activator, partial curve, poor fit]",–
COc1ccc(NC(=O)Nc2cccc(-c3ccc(N4CCOCC4)nn3)c2)cc1Cl,"inconclusive: 12.4 µM [activator, partial curve]",–
COc1ccc(NC(=O)C2CCN(C(=O)c3ncn4c3COC(c3ccccc3)C4)CC2)cc1Cl (centres undefined),active: 0.624 µM,–
c1ccc(Nc2ncc(-c3cccnc3)c3c2OCC3)cc1,"inconclusive: 14.3 µM [activator, partial curve, poor fit]",–
Cn1ccnc1CN1CCc2nc(C(=O)Nc3ccccc3)oc2CC1,"inconclusive: 18 µM [activator, partial curve, poor fit]",–
CCNC(=O)C1C(c2cccc(NC(=O)c3ccc(OC)cc3)c2)OC(=O)N1Cc1ccc(C)cc1 (centres undefined),active: 3.94 µM,–
CCOc1ccc(-c2cc3c(=O)n(CCNC(=O)c4cccc(C#N)c4)ccn3n2)cc1,–,inactive: 15%
COc1ccc(-c2cn3nc(N4CCCC(C(=O)NCc5ccccc5OC)C4)sc3n2)cc1 (centres undefined),–,inactive: 13.3%
Cc1ccc(C(=O)Nc2onc3c2CCCC3)cc1,active: 3.94 µM,–
CC(C)(C)CN1CCNc2cc(Nc3cccnc3)ncc2C1,"inconclusive: 2.86 µM [activator, full curve, poor fit]",–
COc1ccc(C(=O)Nc2noc3ccccc23)cc1,active: 3.13 µM,–
